# Assay results reported in publication PMC4336329 (PLoS ONE, 2015).
# Among all 310,000 compounds or so, about 14,000 (4.5%) showed an effect of 50% or more. Effects have a minus sign here. The list shows a part of the results.
# Target: human ether-à-go-go-related gene (hERG) potassium channel (human, UniProt Q12809)
# Assay: primary screen, population patch clamp on CHO cells stably expressing hERG
# 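Further: peak tail current of the secondary pulse compared with the same well before compound.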
# human ether-à-go-go-related gene (hERG) potassium channel, sequence (Q12809 whole entry, looked up): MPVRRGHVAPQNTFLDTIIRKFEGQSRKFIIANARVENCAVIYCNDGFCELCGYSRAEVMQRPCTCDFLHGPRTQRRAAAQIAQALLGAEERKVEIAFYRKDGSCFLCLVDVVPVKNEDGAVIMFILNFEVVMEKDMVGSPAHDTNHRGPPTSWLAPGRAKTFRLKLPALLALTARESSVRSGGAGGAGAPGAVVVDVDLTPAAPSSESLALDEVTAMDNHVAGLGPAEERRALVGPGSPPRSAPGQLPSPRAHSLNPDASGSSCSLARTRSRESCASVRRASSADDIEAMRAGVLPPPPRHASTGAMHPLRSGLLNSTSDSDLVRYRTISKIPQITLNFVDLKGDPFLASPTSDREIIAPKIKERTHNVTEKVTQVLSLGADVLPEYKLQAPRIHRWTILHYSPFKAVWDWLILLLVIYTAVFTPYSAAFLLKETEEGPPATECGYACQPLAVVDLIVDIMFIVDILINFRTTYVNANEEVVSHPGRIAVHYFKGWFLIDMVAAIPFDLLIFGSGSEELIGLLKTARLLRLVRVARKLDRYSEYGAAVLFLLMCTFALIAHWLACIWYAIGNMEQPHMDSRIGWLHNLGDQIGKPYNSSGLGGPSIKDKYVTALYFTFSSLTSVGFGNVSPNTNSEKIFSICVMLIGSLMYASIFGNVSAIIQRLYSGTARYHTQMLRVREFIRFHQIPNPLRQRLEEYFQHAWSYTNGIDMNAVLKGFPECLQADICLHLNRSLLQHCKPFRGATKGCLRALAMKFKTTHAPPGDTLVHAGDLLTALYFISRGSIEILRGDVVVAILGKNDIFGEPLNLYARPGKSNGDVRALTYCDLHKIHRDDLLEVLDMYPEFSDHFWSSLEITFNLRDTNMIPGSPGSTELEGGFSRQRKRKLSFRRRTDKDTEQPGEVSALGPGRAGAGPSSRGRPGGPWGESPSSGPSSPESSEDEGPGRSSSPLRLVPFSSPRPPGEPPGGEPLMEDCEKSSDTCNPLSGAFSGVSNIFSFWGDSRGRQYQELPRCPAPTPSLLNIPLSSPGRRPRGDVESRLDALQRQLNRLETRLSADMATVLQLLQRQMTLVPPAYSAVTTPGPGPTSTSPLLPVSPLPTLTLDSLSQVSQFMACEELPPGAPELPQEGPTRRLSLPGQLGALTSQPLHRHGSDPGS
row,Structure (SMILES),"hERG current change (%, negative = inhibition) at 10uM"
1,CCOC(=O)C1CCN(C(=O)C(C)c2ccc([N+](=O)[O-])cc2)CC1 (stereo not drawn),-21.4%
2,Cc1cccc(CN2CCN(c3ncccn3)CC2)c1,4.03%
3,C/C(CC(=O)NC12CC3CC(CC(C3)C1)C2)=N\NC(=O)c1ccc(C)cc1,20.1%
4,Cc1ccc(N2CC(C(=O)Nc3ccc(N4CCOCC4)cc3)CC2=O)cc1C (stereo not drawn),15.3%
5,O=C(Cn1nc(-c2ccc(Cl)cc2)c2ccccc2c1=O)NN1CCOCC1,0.409%
6,Cc1cc(SCc2ccccc2C)nc(=O)[nH]1,11.4%
7,COc1cc(S(=O)(=O)NCCCN2CCOCC2)ccc1Cl,-0.898%
8,C/C(=C\C(=O)c1ccc(Br)cc1)Nc1ccc(Cl)cc1,-4.9%
9,CC(OC(=O)Cn1cc(C(F)(F)F)ccc1=O)C(=O)NC(C)c1ccc(Cl)cc1Cl (stereo not drawn),-15.1%
10,O=C(NC(=S)NNS(=O)(=O)c1ccccc1)c1ccccc1[N+](=O)[O-],19.1%
11,O=C(NCc1cc(Br)cc(Br)c1OC(=O)c1ccccc1[N+](=O)[O-])c1ccccc1,11.3%
12,CCc1nc2ccccc2[nH]c1=O,9.28%
13,CCOC(=O)C(C(=O)NCC1CCCO1)C1CCCCC1 (stereo not drawn),12%
14,O=C1CCC(C(=O)OC(C(=O)Nc2ccc([N+](=O)[O-])cc2Br)c2ccccc2)=NN1 (stereo not drawn),-11.7%
15,COc1ccc(C(=O)N2CCCCCC2)cc1OC1CCN(C(C)=O)CC1,6.36%
16,NC(=O)C1CCCN(CC(O)COCc2ccc(Cl)cc2)C1.O=C(O)C(=O)O (stereo not drawn),-8.86%
17,CCN(C(=O)COC(=O)CCn1c(C)csc1=O)c1c(N)n(Cc2ccccc2)c(=O)[nH]c1=O,1.79%
18,CCCCC(=O)Nc1ccc(C(=O)NCC(=O)OC)cc1,-0.352%
19,COc1ccc(C(=O)n2nc(-c3ccco3)nc2SC)cc1OC,3.41%

row,Structure (SMILES),"hERG current change (%, negative = inhibition) at 10uM"
1,CCCC(=O)Nc1cc(-c2nn(C)c(=O)c3ccccc23)ccc1N1CCOCC1,-33.7%
2,CCC(C(=O)NC1CCCC1)N(Cc1cccs1)C(=O)Cn1nnc(-c2ccc(OC)c(OC)c2)n1 (stereo not drawn),-22.3%
3,Cc1ccc(Cl)cc1N1CCN(C(=O)CN2C(=O)c3cccc4cccc2c34)CC1,0.0238%
4,CN(Cc1ccccc1)S(=O)(=O)c1ccc(NS(C)(=O)=O)cc1,-55.5%
5,CCCc1cc(=O)oc2cc(OCC(=O)NCCCN3CCOCC3)c(Cl)cc12,-73%
6,CCOc1ccccc1N(CC(=O)O)S(=O)(=O)c1ccc(C)cc1,12.6%
7,Cc1ccc2nc(N3CCN(Cc4nnnn4C4CCCC4)CC3)c(C#N)cc2c1,-4.91%
8,COc1ccc(C(=O)N/N=C/C2CC=CCC2)cc1OC (stereo not drawn),2.01%
9,Clc1ccc(OCc2nnc3n2CCCCC3)c(Cl)c1,-36.4%
10,CCOC(=O)NC(=O)COC(=O)CNC(=O)c1cccc(OC)c1,9.79%
11,COC(=O)C(C(=O)OC)C(C[N+](=O)[O-])c1ccc(O)c(OC)c1 (stereo not drawn),3.51%
12,Cc1ccc(SCc2ccc(C(=O)Nc3cccc([N+](=O)[O-])c3)cc2)cc1,6.1%
13,CN1C(=O)Cc2cc(S(=O)(=O)N3CCN(c4cccc(Cl)c4)CC3)ccc21,15.3%
14,O=C(CNC(=O)c1cccs1)NCCN1CCN(c2ccccc2F)CC1,-35.3%
15,Cc1csc(NC(=O)CCNS(=O)(=O)c2ccc3c(c2)c(=O)n(C)c(=O)n3C)n1,20.8%
16,COc1ccc(-c2sccc2C(C)C(=O)O)cc1 (stereo not drawn),11.5%
17,COC(=O)c1sccc1NC(=S)N1CCCC(C)C1 (stereo not drawn),14.6%
18,CCOC(=O)c1cc(C(=O)OCC)c2ccccn2c1=O,-2.57%
19,CC1CN(C(=O)COc2ccc3ccccc3c2Br)CC(C)O1 (stereo not drawn),-19.5%

row,Structure (SMILES),"hERG current change (%, negative = inhibition) at 10uM"
1,COc1ccccc1CNC(=O)CC1C(=O)NCCN1C1Cc2ccccc2C1 (stereo not drawn),6.85%
2,CCc1ccc(N2C(=O)CC(NNc3nc4ccccc4s3)C2=O)cc1 (stereo not drawn),-2.9%
3,O=C(Nc1ccc(Oc2cccnc2)cc1)c1ccccc1F,-24.6%
4,Cc1ccc(NNC(=O)Nc2ccc(Cl)cc2)nn1,11.5%
5,COc1ccc(N2CCOCC2)c(NC(=O)c2cccs2)c1,-6.22%
6,COc1ccccc1NS(=O)(=O)c1cc(C(=O)NCC(c2cccs2)N2CCOCC2)ccc1C (stereo not drawn),-13%
7,Cc1ccc(OCCC(=O)OCC(=O)NC(=O)c2ccccc2)cc1,7.4%
8,Cc1ccc(S(=O)(=O)N2CCC(C(=O)N[C@H](C(=O)NCc3ccco3)C(C)C)CC2)cc1,-15.9%
9,O=C(NCc1ccco1)C(=O)NCC1OCCN1S(=O)(=O)c1ccccc1 (stereo not drawn),1.96%
10,Oc1c(C=C2N=c3ccccc3=N2)sc(=S)n1-c1ccccc1,21.4%
11,COc1ccccc1NC(=O)Nc1c(C)n(C)n(-c2ccccc2)c1=O,-10.3%
12,Cc1onc(-c2ccccc2Cl)c1C(=O)NCc1ccco1,4.35%
13,O=C(COC(=O)c1cccnc1Cl)Nc1ncc(Cl)cc1Cl,19.1%
14,Cc1ccc(NC(=O)c2cc(C)on2)cc1,7.68%
15,COc1ccc(C2CC(c3ccc(OC)cc3)n3nc(N)nc3N2)cc1 (stereo not drawn),10.5%
16,COc1ccc(S(=O)(=O)N2CCN(C(=O)CC3CC4CCC3C4)CC2)cc1 (stereo not drawn),9.37%
17,COCCNC(=O)/C(C#N)=C/c1cccc(/C=C(\C#N)C(=O)NCCOC)c1,0.707%
18,Cc1cccc(C)c1NC(=S)N(CCCN1CCN(C)CC1)Cc1cccs1,-47.8%
19,O=C(CSc1nc2[nH]ncc2c(=O)n1-c1ccccc1)N1CCCc2ccccc21,-24.6%
